# Measurements as given in PubChem BioAssay AID504333 (National Center for Advancing Translational Sciences (NCATS), 2011).
# Where “and” joins values, the source holds several entries; their conditions need not be identical. Equal values may be shown once. Screen size: about 360,000 compounds; about 16,000 (4.4%) were called active. The inconclusive results got no clear call from the source; some entries with a clear call stand among them for comparison. The call rests on the fitted dose curve; in most records, active means well fitted inhibition curve with a large enough effect; inconclusive means small, poorly fitted or top-dose-only effect; inactive means no such curve, though single readings can be large or run the other way. Where the call is inconclusive, the potency comes from a doubtful curve fit.
# Target: Bromodomain adjacent to zinc finger domain protein 2B (Homo sapiens) (UniProt Q9UIF8)
# Experiment: qHTS Assay for Inhibitors of BAZ2B; further: nearly all actives have a fitted effect of over 60% in size
# Details: AlphaScreen BAZ2B-H3K14Ac peptide displacement; series mostly up to 114 µM
# Procedure, shortened: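 In this displacement format the biotinylated H3(5-23) peptide acetylated at Lys14 serves as ligand at 50 nM, with BAZ2B at 50 nM in PBS pH 7.4 containing 0.01% Tween-20. Donor and acceptor beads are 10 ug/mL final.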
# Potency means the concentration at half of the fitted maximal effect; tags describe the fitted curve by direction and shape.
# Sequence of UniProt Q9UIF8 (Q9UIF8 whole entry, looked up, the tested form may be a part): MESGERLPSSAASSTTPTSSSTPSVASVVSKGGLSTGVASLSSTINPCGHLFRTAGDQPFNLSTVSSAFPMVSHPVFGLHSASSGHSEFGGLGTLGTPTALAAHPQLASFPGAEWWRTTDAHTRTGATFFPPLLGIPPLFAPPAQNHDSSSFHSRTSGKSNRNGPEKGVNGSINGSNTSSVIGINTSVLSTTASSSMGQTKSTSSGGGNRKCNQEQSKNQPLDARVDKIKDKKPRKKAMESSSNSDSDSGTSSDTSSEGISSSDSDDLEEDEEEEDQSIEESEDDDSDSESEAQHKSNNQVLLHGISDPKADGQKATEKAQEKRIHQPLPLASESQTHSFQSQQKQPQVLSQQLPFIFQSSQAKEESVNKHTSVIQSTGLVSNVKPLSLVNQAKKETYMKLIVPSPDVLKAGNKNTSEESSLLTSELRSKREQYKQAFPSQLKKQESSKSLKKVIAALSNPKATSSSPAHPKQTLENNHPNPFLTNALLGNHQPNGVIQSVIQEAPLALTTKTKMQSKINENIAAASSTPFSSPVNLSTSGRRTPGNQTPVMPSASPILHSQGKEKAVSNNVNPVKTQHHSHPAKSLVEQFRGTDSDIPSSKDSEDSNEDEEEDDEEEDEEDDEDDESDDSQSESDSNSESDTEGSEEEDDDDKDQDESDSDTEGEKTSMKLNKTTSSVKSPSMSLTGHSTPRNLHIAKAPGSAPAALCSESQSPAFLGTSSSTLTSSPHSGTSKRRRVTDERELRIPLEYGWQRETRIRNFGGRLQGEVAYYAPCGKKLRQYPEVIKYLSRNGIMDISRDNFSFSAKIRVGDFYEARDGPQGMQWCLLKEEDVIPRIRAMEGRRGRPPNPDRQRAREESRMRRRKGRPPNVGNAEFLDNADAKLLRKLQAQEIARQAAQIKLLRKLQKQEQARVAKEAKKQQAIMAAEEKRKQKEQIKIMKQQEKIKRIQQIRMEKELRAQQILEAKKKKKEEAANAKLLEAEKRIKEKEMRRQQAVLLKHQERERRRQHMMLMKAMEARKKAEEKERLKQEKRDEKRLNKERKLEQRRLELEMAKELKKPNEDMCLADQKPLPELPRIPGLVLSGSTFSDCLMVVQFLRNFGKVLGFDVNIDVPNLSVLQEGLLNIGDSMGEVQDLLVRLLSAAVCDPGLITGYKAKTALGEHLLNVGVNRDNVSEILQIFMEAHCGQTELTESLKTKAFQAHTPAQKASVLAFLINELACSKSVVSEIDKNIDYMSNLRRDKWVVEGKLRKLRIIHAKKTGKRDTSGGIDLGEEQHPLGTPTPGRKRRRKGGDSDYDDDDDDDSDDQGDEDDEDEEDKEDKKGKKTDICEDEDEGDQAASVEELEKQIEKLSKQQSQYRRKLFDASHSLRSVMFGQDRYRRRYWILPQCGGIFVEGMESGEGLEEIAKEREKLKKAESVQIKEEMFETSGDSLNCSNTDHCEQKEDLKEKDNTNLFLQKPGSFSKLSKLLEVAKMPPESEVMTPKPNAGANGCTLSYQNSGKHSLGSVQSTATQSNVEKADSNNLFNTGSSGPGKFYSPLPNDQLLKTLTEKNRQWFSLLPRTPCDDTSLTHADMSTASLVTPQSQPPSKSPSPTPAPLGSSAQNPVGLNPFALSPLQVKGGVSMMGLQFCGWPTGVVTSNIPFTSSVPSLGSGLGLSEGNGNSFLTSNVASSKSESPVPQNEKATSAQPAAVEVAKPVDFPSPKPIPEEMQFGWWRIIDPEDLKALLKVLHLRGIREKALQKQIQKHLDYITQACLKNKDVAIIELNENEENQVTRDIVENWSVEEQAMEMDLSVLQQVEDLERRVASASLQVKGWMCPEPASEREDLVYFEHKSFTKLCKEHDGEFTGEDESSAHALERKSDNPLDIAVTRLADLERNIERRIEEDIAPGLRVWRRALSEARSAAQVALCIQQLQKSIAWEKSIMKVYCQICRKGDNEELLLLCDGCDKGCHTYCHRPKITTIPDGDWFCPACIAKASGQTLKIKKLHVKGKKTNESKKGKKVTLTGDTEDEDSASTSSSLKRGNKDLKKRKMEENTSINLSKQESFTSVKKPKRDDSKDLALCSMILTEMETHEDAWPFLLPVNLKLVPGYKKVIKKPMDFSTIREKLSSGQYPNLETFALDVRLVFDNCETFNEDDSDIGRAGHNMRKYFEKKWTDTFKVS
row,Structure (SMILES),Potency
1,CC(/C=N/n1c(-c2ccc(Cl)cc2)n[nH]c1=S)=C\c1ccco1,inactive
2,C=C(C)C(=O)Nc1cccc(C(C)=O)c1,"inconclusive: 31.6 µM [inhibitor, single point]"
3,CNc1nc(C(=O)O)nc(N2CCOCC2)n1,active: 11.2 µM
4,Cc1cc(F)ccc1NC(=O)C1CCCN(C(=O)c2cnn(-c3ccccc3)c2-n2cccc2)C1 (stereo not given),inactive
5,Cc1cccc(-c2csc(N)c2C(=O)OC(C)C)c1,"inconclusive: 89.1 µM [inhibitor, single point]"
6,Cc1ccc(NC(=O)CNCc2ccc(Cl)cc2Cl)cc1S(=O)(=O)N(C)C,active: 25.1 µM
7,COc1cccc(CNC(=O)CCc2c(C)nn(-c3ccc(N4CCCC4)nn3)c2C)c1,"inconclusive: 56.2 µM [inhibitor, partial curve, poor fit]"
8,C#CCOCCOCCOCCNc1nc(N2CCN(C(=O)[C@H](CCC(=O)O)n3cc(C(N)CO)nn3)CC2)nc(N2CCN(C(=O)[C@H](CCCCN)n3cc(C(N)CC(C)C)nn3)CC2)n1 (stereo not given in full),active: 44.7 µM
9,CCCN1C(=O)/C(=C/c2ccc(C)o2)NC1=S,"inconclusive: 50.1 µM [inhibitor, partial curve]"
10,CCc1ccc(-c2csc3ncn(Cc4ccc(C(=O)O)cc4)c(=O)c23)cc1,"inconclusive: 70.8 µM [inhibitor, single point]"
11,CCN1C(=NCCCCO)N[C@@H](c2cccc(F)c2)C(C(=O)OC)=C1C,"inconclusive: 100 µM [inhibitor, single point] and inconclusive: 79.4 µM [inhibitor, single point]"
12,O=C(NCc1ccccn1)c1cc(-c2ccc(-c3ccccc3)cc2)nc2ccccc12,"inconclusive: 89.1 µM [inhibitor, single point]"
13,COc1ccc([N+](=O)[O-])cc1NC(=O)Nc1ccc(OC)c(OC)c1,"inconclusive: 79.4 µM [inhibitor, single point]"
14,CN1CCN(c2ccc(NC(=O)c3ccc4ccccc4c3)cc2)CC1,"inconclusive: 70.8 µM [inhibitor, single point]"
15,CCOC(=O)C1=C(Cc2ccc(C)cc2)C(=O)c2ccccc2C1=O,active: 22.4 µM
16,O=C(C1CCCN(S(=O)(=O)c2ccc(F)cc2)C1)N1CCCCCC1 (stereo not given),inactive
17,Cn1c(N2CCOCC2)nc(-c2ccccc2)c1-c1ccccc1,"inconclusive: 70.8 µM [inhibitor, single point]"
18,Cc1ccnn1CC(=O)N/N=C/c1ccc2c(c1)OCO2,inactive
19,CC(=O)N1N=C(c2ccccc2)CC1c1cn(C)c2ccccc12 (stereo not given),"inconclusive: 89.1 µM [inhibitor, single point]"
20,O=c1c2ccc([N+](=O)[O-])cc2ncn1CCOc1ccccc1,"inconclusive: 31.6 µM [inhibitor, full curve, poor fit]"
21,CC(C)NC(=O)c1cc(C(=O)c2cc(Cl)ccc2O)coc1=N,"inconclusive: 39.8 µM [inhibitor, single point]"
22,N#CCCN(Cc1ccccc1)C(=O)c1nccnc1C(=O)O,"inconclusive: 89.1 µM [inhibitor, single point]"
23,COc1cc2ncnc(NCc3cccc(Cl)c3)c2cc1OC,inactive

row,Structure (SMILES),Potency
1,Cc1cc(C)n(CC(=O)c2cccc([N+](=O)[O-])c2)n1,inactive
2,Cc1ccccc1Nc1nc(N)nc(COC(=O)/C=C/c2ccco2)n1,"inconclusive: 50.1 µM [inhibitor, partial curve]"
3,C=C(C)C1CC=C(C)/C(=N/NC(=O)CCCNc2cccc(C)c2)C1 (stereo not given),"inconclusive: 31.6 µM [inhibitor, partial curve]"
4,Nc1cc2c(cc1C(=O)c1ccc(Cl)cc1)OCCO2,active: 35.5 µM
5,O=C(Nc1ccccc1N1CCCCC1)c1cc(S(=O)(=O)N2CCOCC2)ccc1Cl,"inconclusive: 89.1 µM [inhibitor, single point]"
6,COc1ccc(C(=O)N2CCN(C3CCC(c4ccccc4)CC3)CC2)cc1OC (stereo not given),active: 50.1 µM
7,C=CCN1C(c2ccc(Br)cc2)=CS/C1=C(/C#N)c1nnc(N2CCOCC2)n1-c1ccccc1,"inconclusive: 50.1 µM [inhibitor, partial curve]"
8,NNc1nc2ccc(F)cc2s1,active: 44.7 µM
9,CCC(C)n1c(OC)nc2c1c(=O)n(C)c(=O)n2C (stereo not given),inactive
10,CN(CCN(C)C(C)(C)C)C(=O)C(c1ccccc1)c1ccccc1,"inconclusive: 79.4 µM [inhibitor, single point]"
11,CCC(C(=O)NCCc1ccc(OC)c(OC)c1)n1nc(C)c2sc3ccccc3c2c1=O (stereo not given),inactive
12,C[N+](C)(C)CCCCCC(=O)/C=N/O,"inconclusive: 31.6 µM [inhibitor, single point]"
13,O=C(NC(=S)N(CC1CCC1)CC1CCCO1)c1cccc([N+](=O)[O-])c1 (stereo not given),"inconclusive: 17.8 µM [inhibitor, full curve]"
14,CCn1cc(C(=O)O)c(=O)c2cnc(N3CCN(C(=S)NC(=O)c4ccc(F)c(F)c4)CC3)nc21,inactive
15,CC(=O)Nc1ccc(NS(=O)(=O)c2ccc3c(c2)n(C)c(=O)n3C)cc1,active: 79.4 µM
16,O=C(OCC(=O)N(C1CCCCC1)C1CCCCC1)c1ccc(Cl)nc1,inactive
17,COc1cc(OC)c(NC(=O)C(CC(C)C)N2Cc3ccccc3C2=O)cc1Cl (stereo not given),"inconclusive: 79.4 µM [inhibitor, single point]"
18,CCn1cc(C(=O)OCC(=O)c2cc(C)n(-c3ccccc3)c2C)c(=O)c2ccc(C)nc21,"inconclusive: 79.4 µM [inhibitor, single point]"
19,FC(F)(F)c1cccc(NCc2n[nH]c(=S)n2C2CCCCC2)c1,"inconclusive: 79.4 µM [inhibitor, partial curve]"
20,CC1CN(C(=O)CSc2nc(N)cc(N)n2)CC(C)O1 (stereo not given),inactive
21,COc1ccc(C)cc1NC(=O)CSc1ncc2c(n1)-c1ccc(Cl)cc1N(Cc1ccccc1)S2(=O)=O,active: 50.1 µM
22,COc1ccccc1CCNC(=O)c1cc(-c2ccncc2)nc2ccc(Br)cc12,"inconclusive: 56.2 µM [inhibitor, partial curve]"
